Among all 310,000 compounds or so, about 14,000 (4.5%) showed an effect of 50% or more. Effects have a minus sign here. The list shows a part of the results.
What follows are compounds tested against human ether-à-go-go-related gene (hERG) potassium channel (human, UniProt Q12809) (assay: primary screen, population patch clamp on CHO cells stably expressing hERG).
Sequence of human ether-à-go-go-related gene (hERG) potassium channel (Q12809 whole entry, looked up): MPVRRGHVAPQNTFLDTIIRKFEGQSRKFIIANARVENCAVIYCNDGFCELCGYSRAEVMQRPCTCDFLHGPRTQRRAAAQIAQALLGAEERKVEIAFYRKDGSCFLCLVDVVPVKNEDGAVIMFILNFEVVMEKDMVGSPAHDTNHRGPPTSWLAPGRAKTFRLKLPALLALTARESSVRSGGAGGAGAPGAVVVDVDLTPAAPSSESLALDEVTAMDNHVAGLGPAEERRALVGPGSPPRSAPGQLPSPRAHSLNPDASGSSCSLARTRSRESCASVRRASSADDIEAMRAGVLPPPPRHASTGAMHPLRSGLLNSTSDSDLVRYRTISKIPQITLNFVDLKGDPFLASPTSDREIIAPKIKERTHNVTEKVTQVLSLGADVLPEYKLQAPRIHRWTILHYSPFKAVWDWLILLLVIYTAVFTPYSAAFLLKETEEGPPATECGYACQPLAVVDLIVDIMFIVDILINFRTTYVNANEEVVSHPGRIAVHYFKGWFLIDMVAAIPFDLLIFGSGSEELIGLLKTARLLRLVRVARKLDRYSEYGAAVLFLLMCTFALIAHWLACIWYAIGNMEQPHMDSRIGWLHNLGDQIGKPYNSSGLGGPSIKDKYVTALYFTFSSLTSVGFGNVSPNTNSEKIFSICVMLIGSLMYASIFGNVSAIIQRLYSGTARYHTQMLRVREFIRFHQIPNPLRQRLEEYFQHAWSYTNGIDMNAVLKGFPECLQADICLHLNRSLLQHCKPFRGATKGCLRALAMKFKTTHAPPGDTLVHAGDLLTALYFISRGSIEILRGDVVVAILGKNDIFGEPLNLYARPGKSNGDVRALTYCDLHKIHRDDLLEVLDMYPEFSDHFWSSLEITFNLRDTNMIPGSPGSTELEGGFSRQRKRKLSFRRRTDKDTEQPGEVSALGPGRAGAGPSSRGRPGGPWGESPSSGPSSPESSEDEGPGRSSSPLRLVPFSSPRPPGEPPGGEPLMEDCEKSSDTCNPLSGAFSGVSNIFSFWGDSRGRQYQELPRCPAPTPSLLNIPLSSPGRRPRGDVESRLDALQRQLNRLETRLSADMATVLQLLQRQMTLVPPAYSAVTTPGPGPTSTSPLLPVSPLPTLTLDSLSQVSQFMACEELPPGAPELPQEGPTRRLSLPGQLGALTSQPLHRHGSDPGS
For `Cc1ccc(C(=O)NC2=NCCS2)cc1Cl`, the “hERG current change (%, negative = inhibition) at 10uM” value was 8.26%.
For `CCc1cccc(C)c1NC(=O)c1ccccc1`, the “hERG current change (%, negative = inhibition) at 10uM” value was 5.93%.
`COCC(C)NC(=O)C1c2ccccc2Oc2ccccc21` (centres unmarked) was tested, and the “hERG current change (%, negative = inhibition) at 10uM” value was 16%.
For `COc1ccc(OCC(O)CN(C2CCCCC2)C2CCCCC2)cc1.Cl` (centres unmarked), the “hERG current change (%, negative = inhibition) at 10uM” value was -59.5%.
`COc1ccc(C(=O)CCC(C)(C)[N+](=O)[O-])cc1OC` was tested, and the “hERG current change (%, negative = inhibition) at 10uM” value was 4.96%.
`COC(=O)CN(c1nc(C)c(Cl)c(OC)n1)S(=O)(=O)c1ccc(C)cc1` was tested, and the “hERG current change (%, negative = inhibition) at 10uM” value was -11.8%.
For `O=C(Nc1ccccc1-c1nnc(SCc2ccc(Cl)cc2Cl)o1)c1ccccc1`, the “hERG current change (%, negative = inhibition) at 10uM” value was 2.32%.
With `O=C(Nc1ccc(Cl)cn1)c1cc2ccccc2o1` the “hERG current change (%, negative = inhibition) at 10uM” value was 16.2%.
With `CCc1ccc(C(=O)COc2ccc(NC(C)=O)cc2)cc1` the “hERG current change (%, negative = inhibition) at 10uM” value was -22.8%.
With `Cc1ccccc1NC(=S)NC(NC(=O)c1ccccc1C)C(Cl)(Cl)Cl` (centres unmarked) the “hERG current change (%, negative = inhibition) at 10uM” value was 16.9%.
With `CCOc1ccccc1N(CC(=O)Nc1ccccc1C(=O)NCc1ccco1)S(C)(=O)=O` the “hERG current change (%, negative = inhibition) at 10uM” value was -26.9%.
For `Cc1nn2c(NCCN3CCOCC3)c3c(nc2c1-c1ccccc1)CCCC3`, the “hERG current change (%, negative = inhibition) at 10uM” value was -76.5%.
With `Cc1ccc(NC(=S)NCCN2CCOCC2)cc1` the “hERG current change (%, negative = inhibition) at 10uM” value was -10.2%.
With `Cc1ccc(NC(=O)NCC(c2cccnc2)N2CCOCC2)cc1` (centres unmarked) the “hERG current change (%, negative = inhibition) at 10uM” value was 10.2%.
With `Clc1ccc(OCc2nn3c(C4CCCCC4)nnc3s2)c(Cl)c1` the “hERG current change (%, negative = inhibition) at 10uM” value was 5.95%.
In the case of `O=C(Cc1ccccc1)Nc1cc2c(cc1Cl)OCCCO2`, the “hERG current change (%, negative = inhibition) at 10uM” value is reported as 9.61%.
`Cc1cccc2cc3ccccc3nc12` was tested, and the “hERG current change (%, negative = inhibition) at 10uM” value was 4.66%.
In the case of `CN(C)C=Nc1c(C(=O)c2ccccc2)sc2nccc(N(C)C)c12`, the “hERG current change (%, negative = inhibition) at 10uM” value is reported as -27.6%.
In the case of `CN(Cc1ccccc1)C(=O)COC(=O)c1ccc(S(=O)(=O)N(C)C)cc1`, the “hERG current change (%, negative = inhibition) at 10uM” value is reported as -2.9%.
`C=CCN(c1ccccc1)S(=O)(=O)c1ccc(Cl)c(C(=O)OCC(=O)N(C)C2CCS(=O)(=O)C2)c1` (centres unmarked) was tested, and the “hERG current change (%, negative = inhibition) at 10uM” value was -15.7%.
In the case of `COc1ccc(N=Cc2cc(Cc3ccccc3Cl)cc([N+](=O)[O-])c2O)cc1OC`, the “hERG current change (%, negative = inhibition) at 10uM” value is reported as 13.7%.
For `O=C(NC1=NCCS1)c1ccncc1`, the “hERG current change (%, negative = inhibition) at 10uM” value was -10.4%.
`COc1ccc2oc(C(=O)OCC(=O)N(Cc3ccccc3)C(C)C)c(C)c2c1` was tested, and the “hERG current change (%, negative = inhibition) at 10uM” value was 8.59%.
With `CCc1ccc(NC(=O)CSc2nc(=O)n(CCCN(C)C)c3c2CCC3)cc1` the “hERG current change (%, negative = inhibition) at 10uM” value was -42.3%.
In the case of `COc1cc(NC(=O)C2CCN(S(=O)(=O)c3ccc(Cl)cc3)CC2)ccc1-n1cnnn1`, the “hERG current change (%, negative = inhibition) at 10uM” value is reported as 9.28%.
With `O=C(NCCS(=O)(=O)N1CCN(Cc2ccccc2)CC1)c1ccccc1` the “hERG current change (%, negative = inhibition) at 10uM” value was -17.1%.
`O=C(CCc1nnc2ccc(N3CCOCC3)nn12)Nc1ccc(F)cc1F` was tested, and the “hERG current change (%, negative = inhibition) at 10uM” value was -15.8%.
In the case of `COc1ccc(C(=O)N(C)C2(C)CCS(=O)(=O)C2)cc1OC` (centres unmarked), the “hERG current change (%, negative = inhibition) at 10uM” value is reported as -5.65%.
With `COc1cccc2c(=O)n(CC(=O)Nc3cccc(F)c3)ccc12` the “hERG current change (%, negative = inhibition) at 10uM” value was 14%.
`Cc1nn(C(=O)c2nn(C)cc2[N+](=O)[O-])c(C)c1Cl` was tested, and the “hERG current change (%, negative = inhibition) at 10uM” value was 21.9%.
`COc1ccc(NC(=O)CN(C)C(=O)/C=C/c2cn(-c3ccccc3)nc2-c2ccc(F)cc2)cc1` was tested, and the “hERG current change (%, negative = inhibition) at 10uM” value was -2.48%.
`COc1ccc(NS(=O)(=O)c2cccc(C(=O)NNC(=O)c3ccc(=O)[nH]c3)c2)cc1` was tested, and the “hERG current change (%, negative = inhibition) at 10uM” value was -22%.
In the case of `CCNC(=O)Cn1c(=O)c(=O)n(Cc2ccccc2)c2ccc(Cl)cc21`, the “hERG current change (%, negative = inhibition) at 10uM” value is reported as -19.9%.
With `O=C(NCc1ccc2c(c1)OCO2)c1cccc(S(=O)(=O)N2CCCCC2)c1` the “hERG current change (%, negative = inhibition) at 10uM” value was -20.3%.
With `Cc1cccc(N2CCN(C(=O)c3cc4c(=O)n(C)c5ccccc5c4n3C)CC2)c1C` the “hERG current change (%, negative = inhibition) at 10uM” value was 0.656%.
`COc1ccc(-c2cc(C)no2)cc1S(=O)(=O)NCCCN1CCCCCC1` was tested, and the “hERG current change (%, negative = inhibition) at 10uM” value was -17.4%.
With `COc1ccc(C2CCCN2C(=O)Nc2cccc(C(C)=O)c2)cc1OC` (centres unmarked) the “hERG current change (%, negative = inhibition) at 10uM” value was -9.9%.
`C=CCCC1(C)C(=O)N(c2ccccc2)c2ccccc21` (centres unmarked) was tested, and the “hERG current change (%, negative = inhibition) at 10uM” value was -3.56%.
With `COc1cccc(N2CCN(C(=O)c3ccc(CS(=O)c4ccc(Cl)cc4)o3)CC2)c1` (centres unmarked) the “hERG current change (%, negative = inhibition) at 10uM” value was -42%.
For `C=CCc1ccc(OCCCCOc2ccc(C(=O)O)cc2)c(OC)c1`, the “hERG current change (%, negative = inhibition) at 10uM” value was 14%.
For `COc1ccc(OC)c(/C=C2\SC(=S)N(Cc3cccnc3)C2=O)c1`, the “hERG current change (%, negative = inhibition) at 10uM” value was 12.4%.
`O=C(Oc1c(Cl)cc(Cl)c2cccnc12)N1CCCCC1` was tested, and the “hERG current change (%, negative = inhibition) at 10uM” value was 0.957%.
In the case of `O=C(NCCO)N1c2ccccc2Sc2ccccc21`, the “hERG current change (%, negative = inhibition) at 10uM” value is reported as 5.99%.
With `COC(=O)CCCC1=CC2=C(c3ccccc3)C(=O)C(C)(OC(=O)C3CCCC3)C(=O)C2=CN1Cc1ccc(OC)cc1` (centres unmarked) the “hERG current change (%, negative = inhibition) at 10uM” value was -4.26%.
`Cc1ccc2c(c1)N(CC(=O)N1CCCCCC1)C(=O)C(C)O2` (centres unmarked) was tested, and the “hERG current change (%, negative = inhibition) at 10uM” value was -1.06%.
`O=C1NC(=S)N/C1=C/C=C/c1ccccc1` was tested, and the “hERG current change (%, negative = inhibition) at 10uM” value was -10.6%.
`Cc1noc(C)c1S(=O)(=O)NC1CCCc2ccccc21` (centres unmarked) was tested, and the “hERG current change (%, negative = inhibition) at 10uM” value was 1.65%.
`O=c1cc(Cl)c(-c2ccccc2)nn1Cc1ccc(Cl)cc1` was tested, and the “hERG current change (%, negative = inhibition) at 10uM” value was -5.84%.
In the case of `O=C(NC(=S)N1CCCCC1)c1cccs1`, the “hERG current change (%, negative = inhibition) at 10uM” value is reported as 9.19%.
With `COc1ccc(-c2noc(CCC(=O)NC3CCCCC3)n2)cc1` the “hERG current change (%, negative = inhibition) at 10uM” value was 7.7%.
For `CCCc1cc(=O)oc2c(C)c(OC(C)C(=O)NCCN3CCOCC3)ccc12` (centres unmarked), the “hERG current change (%, negative = inhibition) at 10uM” value was -32.1%.
With `O=C(Cc1cn(Cc2cccc(Cl)c2)c2ccccc12)N1CCCC1` the “hERG current change (%, negative = inhibition) at 10uM” value was -50%.
In the case of `O=C(COc1ccc2c(-c3ccccc3)cc(=O)oc2c1)NCC(O)c1ccccc1` (centres unmarked), the “hERG current change (%, negative = inhibition) at 10uM” value is reported as -2.44%.
In the case of `Cc1cccc(OCC(=O)NCCCNC(=O)c2cnccn2)c1`, the “hERG current change (%, negative = inhibition) at 10uM” value is reported as -4.97%.
`CCNC(=O)NC(=O)CSc1ccc2ccccc2c1` was tested, and the “hERG current change (%, negative = inhibition) at 10uM” value was 24.3%.
With `Cc1sc2nc3c(C(=O)N4CCCC4)cc(C(=O)c4ccccc4O)cn3c(=O)c2c1C` the “hERG current change (%, negative = inhibition) at 10uM” value was -30.9%.

Source: article PMC4336329 (PLoS ONE, 2015)
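Also: peak tail current of the secondary pulse compared with the same well before compound.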
